# In PubChem BioAssay AID463173 (ICCB-Longwood Screening Facility, Harvard Medical School, 2010):
# Out of some 52,000 compounds screened, about 4,300 (8.3%) were called active. Cut-off read from the data, not from the text of the source: active = survival mostly below about 52% (no sharp cut-off); inactive = mostly above about 56%. The list shows a part of the results.
# Test system: DeltatarO mutant
# Test: growth inhibition of S. aureus wild type versus tarO mutant, primary screen, teichoic acid synthesis inhibitors, RN4220, OD600 (AID 463173)
# Conditions: OD600, 18 h, active compounds read low, screened at 18.75 µg/mL (by protocol)
row,SMILES,survival
1,Cc1cc(C)c(Cn2c(=O)n(CCCCCC(=O)NCc3ccc4c(c3)OCO4)c(=O)c3sccc32)c(C)c1,inactive: 97%
2,COc1cccc(NC(=O)Cn2c(=O)n(-c3cccc(OC)c3)c(=O)c3c4c(sc32)CCCC4)c1,inactive: 107%
3,COc1ccc(NS(=O)(=O)c2ccc3[nH]c4c(c3c2)CCCC4)c(OC)c1,inactive: 82%
4,CCOc1ccc(Nc2nc3ccccc3c3nnc(CC)n23)cc1,inactive: 62%
5,O=C(NCc1ccco1)C1C2C3CCC(C3)C12 (configuration not stated),inactive: 77%
6,CC(C)OC(=O)c1cc(=O)[nH]c2ccccc12,inactive: 97%
7,COc1ccc(NC(=O)C2CCN(S(=O)(=O)c3c(C)noc3/C=C/c3ccco3)CC2)cc1,inactive: 115%
8,CCN(C(=O)CN(C)S(=O)(=O)c1ccc2c(c1)n(C)c(=O)c(=O)n2C)c1cccc(C)c1,inactive: 109%
9,Cn1c(=O)c2c(SCC(=O)NCc3ccco3)nc(-c3ccccc3F)nc2n(C)c1=O,inactive: 93%
10,Cc1ccc(NC(=O)Nc2cc3c(cc2N2CCCCC2)n(C)c(=O)n3C)cc1Cl,inactive: 99%
11,O=C(O)CNC(=O)c1cncc(O)c1,inactive: 86%
12,COc1ccc(NC(=O)CC2C(=O)N(c3ccccc3)C(=O)N2Cc2cccnc2)cc1 (configuration not stated),inactive: 94%
13,O=C(O)C1CC(=O)N(c2cccc(Cl)c2)C1 (configuration not stated),inactive: 71%
14,Cc1ccc(CN(C(=O)c2ccccc2Br)C2CCS(=O)(=O)C2)o1 (configuration not stated),inactive: 97%
15,CC1CCC(NC(=O)c2ccc3c(c2)N(Cc2cccc(Cl)c2)C(=O)c2ccccc2S3=O)CC1 (configuration not stated),active: 25%
16,COc1ccc(OCc2nc3ccccc3n2C(C)C)cc1,inactive: 88%
17,O=C(NCc1ccc(Cl)cc1)C(=O)Nc1cccc(Br)c1,inactive: 133%
18,O=C(Nc1ccc2oc(-c3ccc4ccccc4c3)nc2c1)c1cc(Br)ccc1Cl,inactive: 75%
19,Cc1ccc(-n2nc(-c3ccc(F)cc3)c3cnc4cc5c(cc4c32)OCO5)cc1C,inactive: 82%

row,SMILES,survival
1,O=C(CNS(=O)(=O)c1ccccc1)Nc1ccc2c(c1)OCO2,inactive: 100%
2,CCc1ccc(NC(=O)CC(c2ccc(C)cc2)N2Cc3ccccc3C2=O)cc1 (configuration not stated),inactive: 112%
3,O=C1C2CCCN2C(=S)N1C1CCCCC1 (configuration not stated),inactive: 109%
4,COc1ccc(NC(=O)c2oc3ccc(S(=O)(=O)N(C)C4CCCCC4)cc3c2C)cc1Cl,inactive: 71%
5,O=C(CCC1CCCCC1)Nc1ncn[nH]1,inactive: 71%
6,CCc1ccc(-c2cc(C)no2)cc1S(=O)(=O)N1CCN(c2cccc(Cl)c2)CC1,inactive: 89%
7,Cc1c(C(=O)Nc2ccc(Br)cc2F)oc2ccc(S(=O)(=O)N3CCC4(CC3)OCCO4)cc12,inactive: 81%
8,COc1cccc(-n2c(=O)c3c4c(sc3n(Cc3ccc(F)cc3Cl)c2=O)CCCC4)c1,inactive: 140%
9,O=C(CCCc1nc(-c2ccco2)no1)Nc1ccccc1[N+](=O)[O-],inactive: 83%
10,CCOC(=O)c1ccc(NC(=O)c2c(C)oc3nc(C)nc(N4CCCC4)c23)cc1,inactive: 75%
11,CC(=O)Nc1c(C(=O)Nc2cccc(C)c2)nnn1-c1ccc(C)cc1,active: 69%
12,CCC1CCCCN1S(=O)(=O)c1ccc(N2CCCCS2(=O)=O)cc1 (configuration not stated),inactive: 75%
13,COc1ccc(-c2[nH]ncc2C(=O)NCc2cccc(F)c2)cc1,inactive: 86%
14,COc1ccc(C2=NN(C(C)=O)C(c3cn(-c4ccccc4)nc3-c3cccs3)C2)cc1 (configuration not stated),inactive: 152%
15,Cc1cc(N2CCN(C)CC2)nc2ccc(NC(=O)Nc3ccccc3)cc12,inactive: 65%
16,O=C(O)C1CCCCC1C(=O)Nc1cccc(C(=O)N2CCCCC2)c1 (configuration not stated),inactive: 101%
17,COc1cccc(CC(=O)NCc2ccc3c(c2)CCN3C(C)=O)c1,inactive: 80%
18,CN(C)S(=O)(=O)Nc1ccc(-c2cn3ccsc3n2)cc1,inactive: 55%
19,Cc1ccc2oc(C(=O)Nc3ccc(S(=O)(=O)N(C)Cc4ccccc4)cc3)cc(=O)c2c1,inactive: 50%

row,SMILES,survival
1,Cc1cccc(Cc2cnc(NC(=O)c3ccc4c(c3)CC(c3ccccc3)OC4=O)s2)c1 (configuration not stated),inactive: 66%
2,CCc1ccc(-n2c(=O)c3c4c(sc3n(CC(=O)NCCCOC)c2=O)CCC4)cc1,inactive: 91%
3,Cc1ccc(-n2nc(C(=O)N3CCN(c4ccccc4)CC3)c(=O)n(C)c2=O)cc1,inactive: 124%
4,COC(=O)c1ccccc1NC(=O)c1nc(S(=O)(=O)Cc2ccccc2F)ncc1Cl,inactive: 110%
5,CCCCOc1ccc(S(=O)(=O)n2nc(C)c(S(=O)(=O)N3CCC(C)CC3)c2C)cc1,inactive: 85%
6,CCCOC(=O)C(C)n1nnc2sc(-c3ccccc3)cc2c1=O (configuration not stated),inactive: 63%
7,Cc1ccn2c(Nc3ccc4c(c3)OCO4)c(-c3ccc(O)cc3)nc2c1,inactive: 64%
8,CCCN1CCN(c2ncnc3sc(C(=O)Nc4ccc(N(CC)CC)cc4C)c(C)c23)CC1,inactive: 117%
9,O=C(CSCc1cnn(-c2ccccc2)c1-n1cccc1)NCc1ccccc1F,inactive: 83%
10,COc1cccc(CNS(=O)(=O)c2cc(Br)cc3c2N(C(C)=O)C(C)C3)c1 (configuration not stated),inactive: 128%
11,COc1ccc(NC(=O)c2nc(SCc3ccccc3F)ncc2Cl)cc1,inactive: 73%
12,O=C(NCCc1ccc(Cl)cc1)c1ccc2c(c1)N(Cc1ccccc1)CCS2,inactive: 102%
13,COc1cccc(N2CCN(C(=O)c3ccc(CS(=O)c4cccc(Cl)c4)o3)CC2)c1 (configuration not stated),inactive: 75%
14,O=C(Nc1ccc2oc(-c3cccnc3)nc2c1)c1ccc(-c2cccc(OC(F)(F)F)c2)o1,inactive: 51%
15,Cc1ccc(C)c(NC(=O)CCc2c(C)n(C)c3cc(-c4ccccc4C)nn3c2=O)c1,inactive: 63%
16,COc1ccc(Br)cc1S(=O)(=O)N1CCCCCC1,inactive: 95%
17,CC(C)Oc1ccc(CNC(=O)c2ccc3nc(SCc4ccc(F)cc4)n(C)c3c2)cc1,inactive: 101%
18,CC(NC(=O)c1ccc2nc(CCc3ccccc3)oc2c1)c1ccccc1 (configuration not stated),inactive: 84%
19,Cc1ccccc1Cn1c(C)c(CNCc2ccccc2)c(C(=O)O)c1C,inactive: 84%
